T1: UNK ZnF1-3 (human, UniProt Q9C0B0 31-174)
T1 sequence: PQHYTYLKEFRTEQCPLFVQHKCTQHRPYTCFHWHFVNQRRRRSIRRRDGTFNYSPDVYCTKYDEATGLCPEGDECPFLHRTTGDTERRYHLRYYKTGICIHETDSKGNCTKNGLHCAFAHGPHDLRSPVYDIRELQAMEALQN

B1: chr17:13112271:13112272:+_ENSMUSG00000068039_ENSMUST00000151287|mus_hu|motif|central (ssRNA)
RNA: GGGAGUUCUACAGUCCGACGAUCAAUUAGGUUUUCAUUGAUAUAACGCACUGCUUCCUUGCAAGCAAGUCGAUAGCCACGGAUAACUGAUGUGGGAUGAAUUUUCUGUUUGACUAAUUCAUCUGCAUUUUUUAGGAGUUCUGCCAACAGAGGAUUGAGCAUCA
B2: chr1:39494564:39494565:+_ENSG00000168653_ENST00000372967|hu_mus|motif|central (ssRNA)
RNA: GGGAGUUCUACAGUCCGACGAUCAUGCAUUCGCCUCAUCGUUUUGUACCGAAGCAAGCACUCUUCGAAGUCAUCGAACUCGGUCUUGCACUCCUUUUUCGCCCGGGUCCCACCGAUCCCGUGUGCACACUCUAUCCACUCUUUCAACAGAGGAUUGAGCAUCA
B3: chr3:88342849:88342850:+_ENSMUSG00000074480_ENSMUST00000172699|mus_mus|FALSE|FALSE (ssRNA)
RNA: GGGAGUUCUACAGUCCGACGAUCCUUUGUGGGUAAGGAGUGGAGAGGGGGAGGGGACUGACAGACAGACAUCCCUUCUUCCCACCCCCCUCCCAUCCCCUGCCCCUGGGCAACCCAGGGUGCCCAUUUGGUUUGGUUUCUAUUCAACAGAGGAUUGAGCAUCA
B4: 142037738_142048388_4466_3pUTR_ENSG00000114127_ENST00000264951|human|control|control (ssRNA)
RNA: GGGAGUUCUACAGUCCGACGAUCUCAUUGUCUGUGGCAUCCUAAGAAAGGAGAAAUCAGGUUGUGGCAUUCCAACAAGGGAACAAAUUCGAGAAAGUUCAGUUACUGGUGUGGAUACAGGAGGGAUCUGGCUGGGGGCAGGCCCAACAGAGGAUUGAGCAUCA
B5: chr5:60455605:60455606:-_ENSG00000188725_ENST00000339020|hu_mus|FALSE|FALSE (ssRNA)
RNA: GGGAGUUCUACAGUCCGACGAUCAACUUAAAUACUUGCCAGUAGAUACCAACAAACUUUUAUUUCCAAGCCUAAAAGUUACUAUAGUAUUGAGGUCAGAACAUGACUCUUCUGUACGGUCAGAUUAAUUCACUAAAUAAUACUCAACAGAGGAUUGAGCAUCA
B6: 33710973_33711093_6789_3pUTR_ENSMUSG00000027677_ENSMUST00000099153|mouse|control|control (ssRNA)
RNA: GGGAGUUCUACAGUCCGACGAUCAAAUCAGCAUCUCCUUUAAACCUUUGGGAAAAUCGUCAUUACAGCAGUGAUUGUCUUAGAACUCAGUUACUUCUGGAAACGCAGCACUGGUAGGAAAUCUGUUUCUACUAAUGAUCAUUUCAACAGAGGAUUGAGCAUCA
B7: chr2:179515052:179515053:+_ENSMUSG00000000305_ENSMUST00000000314|mus_hu|mus_mus_mus_hu_False|38_78 (ssRNA)
RNA: GGGAGUUCUACAGUCCGACGAUCGCUGUCCCAUGCAGUCACCGUGAACGCCACCUGCUCUGAGGGGACCUGCAGCUCCCGGGUGGCGAAGACUGUCCCAUCCGCCCCAACUUUGAAGUCCAUGCUGUUGGUCUCAUAUUGUGUCAACAGAGGAUUGAGCAUCA
B8: chr14:103931940:103931941:+_ENSG00000075413_ENST00000216288|hu_mus|FALSE|FALSE (ssRNA)
RNA: GGGAGUUCUACAGUCCGACGAUCACAAAACGUGUCUAGUUUACUGCCAACAGUAAAUUCAUUGCUAAAACCAAAAUCUGCUAUUUUAAUGUUCAUAUCCGCAUCUAAUAACAGAUUUUCAGCCUUGAGGUCUCUGUGAACAAUCAACAGAGGAUUGAGCAUCA
B9: chr1:180459674:180459675:+_ENSMUSG00000026494_ENSMUST00000161017|mus_mus|motif|central (ssRNA)
RNA: GGGAGUUCUACAGUCCGACGAUCGCCUCUCUUUAUUUCCGGCUACCGAAUUCAUGGUGGCUCUUCCAGAGGAAAGGGUCGGAAUGUUCCCACAAGGCUACAUCCAAAAGGUCUGCCAACCCAGACGCGUCCCCCCUCGUGGUACAACAGAGGAUUGAGCAUCA
B10: chr1:60041781:60041782:+_ENSMUSG00000041040_ENSMUST00000036540|mus_hu|mus_mus_mus_hu_False|8_98 (ssRNA)
RNA: GGGAGUUCUACAGUCCGACGAUCAAGUUUACAAUAGCUCAACUUUAGCAGUAGUGGCAAAUUUUCUUUUAUUUUCCUUCACAAAAGAAAAUCUUUAUAACCCAGUCCUAGUCUUGGACAUAGUGAAUCUCCAUGGGUCUGACUCAACAGAGGAUUGAGCAUCA
B11: chr1:163112212:163112213:-_ENSG00000143248_ENST00000313961|hu_hu|hu_hu_hu_mus_False|18_38 (ssRNA)
RNA: GGGAGUUCUACAGUCCGACGAUCUUUUAUUAUCAGUAAGAGUGAGUUACAUACUAGGCAAAGUAUUGGAUACAAUAAUCAGGAAACAAACACUAUUUUUCUUGAAUUUAAAACUUUUGGGAUAAAUUGCUGGCACAGGACUUACAACAGAGGAUUGAGCAUCA
B12: chr2:166767530:166767531:+_ENSMUSG00000002718_ENSMUST00000002790|mus_hu|motif|central (ssRNA)
RNA: GGGAGUUCUACAGUCCGACGAUCAAAUAUUUCUUGUAGUGCUAGUGCCCCAUAUUUUAUGCAAUACAAAUUAAUAAAGACGGAAAAACUCUUGAUAAACUUGGUUGUUUUGGAAUUCUGAAGUCUCUGGAAUAGCAGAAUGAACAACAGAGGAUUGAGCAUCA
B13: chr21:30248746:30248747:-_ENSG00000156239_ENST00000303775|hu_hu|FALSE|FALSE (ssRNA)
RNA: GGGAGUUCUACAGUCCGACGAUCUCAAAAUAUGCUAAAUGCAUUCAGUUUCCAGUAGUUCUGGGCACACACUGUAUGCUAAGACUUGGUGAACUUGAGGACUGAAAGAGUUUCUUGGCCUGCUUGUCUGGAAAGUGCAGUGGUCAACAGAGGAUUGAGCAUCA
B14: chr5:138643614:138643615:+_ENSG00000015479_ENST00000510056|perfect_dup|motif|central (ssRNA)
RNA: GGGAGUUCUACAGUCCGACGAUCGUCAUAAUCAAGCACUGGGUUGAGACUAGGACCACGAUCAUCAAAACUAUCUCUUCGGAAGUGCCUUUUUUCUUCCCAAUCAUCCCUAGGUACUCUGUAUGGUGGCUCCCGUGUAGCAGACAACAGAGGAUUGAGCAUCA

Here are results for 14 molecules from paper PMC12136788.

This is one part of the list.

The assay deals with T1, UNK ZnF1-3. Description: nsRBNS (natural sequence RNA bind-n-seq); RBNS binding buffer (assumed for nsRBNS): 25 mM Tris pH 7.5, 150 mM KCl, 3 mM MgCl2, 0.01% Triton X-100, 500 ug/ml BSA, 20 U/ml SUPERase-In, 4 C; UNK is unkempt and MSI1 is Musashi-1; names of the RNAs are library labels; protein concentration not given here; high values mean tight binding.
The molecule B1 showed a binding signal of 0.636 enrichment R.

On to B2, for which the binding signal was 0.601 enrichment R.

Molecule B3 registered a binding signal of 0.317 enrichment R.

As for B4, the binding signal was 1.81 enrichment R.

As for B5, the binding signal was 0.607 enrichment R.

B6 had a binding signal of 1.05 enrichment R.

B7: the binding signal turned out to be 0.74 enrichment R.

For the molecule B8, the binding signal is 0.574 enrichment R.

B9: the binding signal came out at 1.21 enrichment R.

Regarding B10, the binding signal is 0.69 enrichment R.

Take B11: the binding signal amounted to 2.34 enrichment R.

Consider B12, for which the binding signal turned out to be 1.59 enrichment R.

With B13, the binding signal came to 1.11 enrichment R.

B14 had a binding signal of 1.4 enrichment R.
